The values below come from patent CN115057938A (dated 2022).

First the molecules themselves.
B1: R1406 (Fc fusion, not shown: small tags and cut ends)
chain (part 1 of 3): QVQLVESGGGPVQAGGSLRLSCTCSRCTFNWDGMGWFRQAPGKEREFVATISWSGQEPAYADSVKGRFTISRDKPKNTVYLQMTSLKSEDTAVYYCAAAQYTGASYSILRDQVGYDYWGQGTRVTVSA
chain (part 2 of 3): QVQLVESGGGPVQAGGSLRLSCTCSRCTFNWDGMGWFRQAPGKEREFVATISWSGQEPAYADSVKGRFTISRDKPKNTVYLQMTSLKSEDTAVYYCAAAQYTGASYSILRDQVGYDYWGQGTRVTVSA
chain (part 3 of 3): QVQLVESGGGPVQAGGSLRLSCTCSRCTFNWDGMGWFRQAPGKEREFVATISWSGQEPAYADSVKGRFTISRDKPKNTVYLQMTSLKSEDTAVYYCAAAQYTGASYSILRDQVGYDYWGQGTRVTVSA[human IgG1 Fc with changes not printed]
notes: also called 人源化多价结合蛋白 R1406; VHH-Linker-VHH-Linker-VHH-Fc区
B2: R1382 (Fc fusion)
chain: QVQLVESGGGPVQAGGSLRLSCTCSRCTFNWDGMGWFRQAPGKEREFVATISWSGQEPAYADSVKGRFTISRDKPKNTVYLQMTSLKSEDTAVYYCAAAQYTGASYSILRDQVGYDYWGQGTRVTVSA[human IgG1 Fc with changes not printed]
notes: also called RX011 VHH-Fc区; 对照
B3: R1407 (Fc fusion, not shown: small tags and cut ends)
chain (part 1 of 3): [human IgG1 Fc with changes not printed]QVQLVESGGGPVQAGGSLRLSCTCSRCTFNWDGMGWFRQAPGKEREFVATISWSGQEPAYADSVKGRFTISRDKPKNTVYLQMTSLKSEDTAVYYCAAAQYTGASYSILRDQVGYDYWGQGTRVTVSA
chain (part 2 of 3): QVQLVESGGGPVQAGGSLRLSCTCSRCTFNWDGMGWFRQAPGKEREFVATISWSGQEPAYADSVKGRFTISRDKPKNTVYLQMTSLKSEDTAVYYCAAAQYTGASYSILRDQVGYDYWGQGTRVTVSA
chain (part 3 of 3): QVQLVESGGGPVQAGGSLRLSCTCSRCTFNWDGMGWFRQAPGKEREFVATISWSGQEPAYADSVKGRFTISRDKPKNTVYLQMTSLKSEDTAVYYCAAAQYTGASYSILRDQVGYDYWGQGTRVTVSA
notes: also called 人源化多价结合蛋白 R1407; Fc区-VHH-Linker-VHH-Linker-VHH

In this experiment the target is T1, Delta变异株SARS-COV-2 RBD蛋白(Ag101) (SARS-COV-2 Delta变异株).
T1 construct: domain: RBD; also called Delta variant SARS-COV-2 RBD protein
Nature of the experiment: competition ELISA: Delta RBD coated, blocks ACE2 binding.
Molecule B1 showed an IC50 of 0.0148 nM.
The same measure for B2: 0.0137 nM; for B3: 0.0158 nM.
